Laboratory results taken from the supplement of paper PMC3334620.
The full ranking holds about 33,000 sequences; the median of “E-score (-0.5 to 0.5)” is about -0.035, and the highest 2% start at about 0.35. The list shows a part of the results.

biological target: T1, Pdr3 (UniProt P33200); test: PBM E-score (8-mer binding enrichment) (E-score (-0.5 to 0.5)); higher = stronger / more preferred TF binding; most listed sequences are background and not binding sites; details: protein concentration: 200 nM; construct: GST-full length
T1 sequence: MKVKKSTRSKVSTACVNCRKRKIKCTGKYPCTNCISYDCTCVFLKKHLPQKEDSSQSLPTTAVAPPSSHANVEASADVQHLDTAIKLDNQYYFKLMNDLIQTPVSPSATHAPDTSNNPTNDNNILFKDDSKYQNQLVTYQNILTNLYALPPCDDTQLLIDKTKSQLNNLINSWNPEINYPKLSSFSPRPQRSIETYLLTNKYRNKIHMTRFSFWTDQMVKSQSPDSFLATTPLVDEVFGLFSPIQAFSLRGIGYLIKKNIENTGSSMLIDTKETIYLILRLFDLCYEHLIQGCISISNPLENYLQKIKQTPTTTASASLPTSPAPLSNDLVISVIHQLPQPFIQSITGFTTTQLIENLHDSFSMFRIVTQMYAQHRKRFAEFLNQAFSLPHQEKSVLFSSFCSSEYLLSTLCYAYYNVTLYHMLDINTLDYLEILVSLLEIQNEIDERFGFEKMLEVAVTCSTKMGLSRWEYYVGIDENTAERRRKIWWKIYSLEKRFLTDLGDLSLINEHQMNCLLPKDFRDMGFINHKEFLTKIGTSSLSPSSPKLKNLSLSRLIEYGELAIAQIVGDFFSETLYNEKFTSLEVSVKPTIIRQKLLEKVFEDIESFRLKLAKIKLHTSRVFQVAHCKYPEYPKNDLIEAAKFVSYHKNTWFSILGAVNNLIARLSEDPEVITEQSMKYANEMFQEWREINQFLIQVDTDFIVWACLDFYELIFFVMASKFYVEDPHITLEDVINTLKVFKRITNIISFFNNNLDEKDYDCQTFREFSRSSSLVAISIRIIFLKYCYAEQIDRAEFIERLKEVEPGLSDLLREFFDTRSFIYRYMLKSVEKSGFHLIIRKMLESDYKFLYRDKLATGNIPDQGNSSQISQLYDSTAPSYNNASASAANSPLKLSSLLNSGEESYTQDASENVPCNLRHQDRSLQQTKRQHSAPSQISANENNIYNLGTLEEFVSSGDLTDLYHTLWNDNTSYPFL
Procedure, shortened: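 Universal all-10-mer Agilent arrays, fresh or stripped once, were converted to double-stranded form by primer extension. GST-tagged yeast transcription factors from PURExpress in vitro transcription/translation, full-length or DNA-binding domain only, were applied at about 100-200 nM and detected with fluorescent anti-GST. After masliner normalisation, the Universal PBM Analysis Suite scored each ungapped eight-base word together with its reverse complement by E-score.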

In order of falling “PBM E-score” value:
1. ACGGAACG  0.48
2. CGTTCCGA  0.455
3. GATCCCGC  0.371
4. ACCGGGAT  0.357
5. CGGAGTTC  0.352
6. CCCGACGG  0.351
7. CGGCACCA  0.321
8. CGCTCCGC  0.287
9. AAAGCCGG  0.282
10. ATAAGTTC  0.276
11. ACGGGATC  0.275
12. TTCCCGAA  0.273
13. GCGGGTTA  0.269
14. CCGAGTCC  0.268
15. CCTCGGGA  0.265
16. CACTCGGC  0.258
17. GAACGGCA  0.256
18. AACATTCC  0.252
19. ATTCGGCA  0.245
20. ACCGGAGT  0.234
21. AGGTTACC  0.221
22. GCCGCTAC  0.216
23. CCGAATAG  0.203
24. AGCTTCAT  0.196
25. AGAGGTAT  0.179
26. GAGACGGC  0.177
27. CCCGTATA  0.166
28. ATTGGGTC  0.162
29. CGAGGTTC  0.162
30. CGGGCAAC  0.161
31. CGAGATCG  0.16
32. CCGGTAGG  0.158
33. GAATAACA  0.156
34. CGCGTCCA  0.152
35. ACGGTACC  0.149
36. CCGCGAGA  0.147
37. GGATCAGA  0.147
38. ACAATATA  0.145
39. AATATATC  0.142
40. ACACCGGT  0.14
41. AGCGGCGC  0.137
42. ATATATAA  0.136
43. GAACGGTC  0.134
44. GAACTACA  0.129
45. GAACAAAA  0.122
46. ATTTATGA  0.117
47. AAATTATC  0.116
48. ACATGGAA  0.113
49. CGACCCGC  0.113
50. CGATTCCA  0.112
51. AACTACTC  0.111
52. CTTTCACA  0.108
53. GGGATTTA  0.104
54. AGTATGTG  0.103
55. GGTTAACC  0.102
56. AACTAATC  0.098
57. CGACCAGC  0.0968
58. ACATTATC  0.0877
59. CGTACCCC  0.0871
60. AAGCGAAT  0.0817
61. ATGAACTC  0.0804
62. TATCGACA  0.079
63. AACCAAAA  0.078
64. AGCGGTCC  0.0698
65. ATGAAACC  0.0686
66. AAATTGCG  0.0648
67. ATGATCGG  0.0612
68. CGACATCA  0.0545
69. ATTTCTAG  0.054
70. AGTGGGGA  0.0488
71. GGATACCC  0.0488
72. GTGTACAA  0.048
73. ATATTTTG  0.0456
74. GGCTTTAC  0.0445
75. GCACATCC  0.0416
76. ATCAGTCA  0.0413
77. CAGTGGCC  0.0344
78. AGACGAAA  0.0335
79. GGCCGCCC  0.0328
80. ACTGTGTA  0.0292
81. ACCGCTCG  0.0282
82. GACCACTA  0.0262
83. CAGCACGA  0.0254
84. CGCCTTTC  0.018
85. GCGGCCTA  0.0147
86. TGTTGAAA  0.0145
87. CCATAACA  0.0144
88. GCCCTTAA  0.0144
89. AACTTTAC  0.00693
90. CATAATAG  0.00529
91. TAACCAGA  -0.00146
92. GGGAGGCA  -0.0024
93. GATTAAGA  -0.00248
94. AAGCTCTC  -0.008
95. GTCTAGTA  -0.00944
96. GTCGCAAA  -0.0129
97. AATACCAA  -0.0155
98. TGTGAGAA  -0.0175
99. AGTTACTC  -0.0205
100. CCCACATA  -0.0213
101. TCGTATCA  -0.0248
102. AGATTGAC  -0.0268
103. AATCCCAT  -0.0271
104. CACTCGTC  -0.0288
105. CAGTTCAA  -0.0317
106. CTAAGGGA  -0.0324
107. AGATAGTA  -0.0343
108. ACGGTTAA  -0.038
109. ATCCTCTC  -0.0391
110. ATCAGCTC  -0.0405
111. AGCGCGAC  -0.0459
112. AGACATAT  -0.0467
113. GTAGTGAA  -0.0481
114. CCCAGAAC  -0.0485
115. AAATTGAC  -0.0509
116. CCATATCA  -0.0527
117. CTCCAGTA  -0.0529
118. ACTGCCAT  -0.0531
119. AGCAGAAG  -0.0531
120. ATTACCAC  -0.0539
121. ATTTCTAA  -0.0544
122. CCTAATAC  -0.0552
123. ATGTCTCA  -0.0576
124. AAAATTAA  -0.0599
125. GCACTGAA  -0.06
126. ACAAGTCC  -0.0618
127. AGTCCCAA  -0.0626
128. TCTTTTCA  -0.0634
129. ATGTAGTA  -0.0649
130. TATCGCCA  -0.0696
131. GCTTCTCA  -0.0707
132. AGGAAAAT  -0.0716
133. CTAGCTAA  -0.0718
134. CATGCCAC  -0.0725
135. AATCTGCA  -0.0755
136. GAGTCACA  -0.0756
137. CGGCCCCC  -0.0763
138. CATCACAA  -0.0793
139. ATGTACAA  -0.0796
140. GTTAAATA  -0.0823
141. ACGCTCCC  -0.086
142. CATCAAGC  -0.0872
143. GTACCACA  -0.0879
144. ACGCCTGG  -0.0917
145. CACGCGAA  -0.094
146. GTTGAGTA  -0.0945
147. ATGAGCTA  -0.0954
148. ATGGCTGC  -0.0956
149. CGTTTGAC  -0.0957
150. GAAGGGTC  -0.0957
151. GTTTTTTA  -0.1
152. AGGTTTGG  -0.102
153. ACCCTACG  -0.106
154. ACAGGCGC  -0.11
155. ATCCTTTA  -0.114
156. CCAGCGCC  -0.114
157. AACAAGAG  -0.117
158. GAAGGATA  -0.121
159. ACTAGTTA  -0.124
160. AGTCATAC  -0.126
161. CCAGCACA  -0.128
162. CTAACCCA  -0.131
163. ATAAATGA  -0.132
164. AGGCTGTA  -0.135
165. AATAGACA  -0.138
166. AGTCTTTC  -0.14
167. CACGTAAC  -0.141
168. CTCTATGA  -0.142
169. GTGATCCA  -0.142
170. GTGTAGGA  -0.146
171. GAGCGCAA  -0.148
172. AATTGTGA  -0.149
173. AGGAGAAA  -0.15
174. AAGATGCA  -0.15
175. GAAGCTTA  -0.154
176. ATCTAGAT  -0.155
177. TACGTGAA  -0.157
178. CTAGGCAG  -0.159
179. AGTCCAGC  -0.16
180. GTGTATGA  -0.16
181. AACCTTTG  -0.165
182. AACTGACA  -0.17
183. GACGTAAC  -0.171
184. CACTATCA  -0.171
185. ACAAGTCT  -0.175
186. TCAGAAGA  -0.178
187. CGAGTCAC  -0.179
188. ACGTGGAT  -0.182
189. TCTTTGAA  -0.184
190. CTCTTAGC  -0.185
191. GGGAGCCA  -0.185
192. ACAAAGAT  -0.186
193. ACCATCAT  -0.187
194. AAGCGTCA  -0.196
195. TAATTGAA  -0.198
196. AAGCTGTG  -0.203
197. CTACTCAG  -0.204
198. ACGCTATA  -0.211
199. AATTCCTA  -0.211
200. CTATGTAC  -0.211
201. CCCCTTGC  -0.211
202. TAAGTCTA  -0.213
203. ATGCACCA  -0.213
204. AATGCCTG  -0.22
205. CTATGCAA  -0.221
206. CTTTAGGA  -0.234
207. AAGCCATA  -0.245
208. CGCTCCTC  -0.248
209. TCCTACGA  -0.263
210. GAGAGTCA  -0.27
211. AATCCTAC  -0.278
212. TAGGCTAA  -0.288
213. CCTTTTAG  -0.291
214. TCCACCCA  -0.292
215. CAGTGCCA  -0.292
216. CCACAACA  -0.3
217. ACCCAGGA  -0.301
218. CACAAGTG  -0.315
219. AGTCTTAA  -0.328
